{"source": "a collection of fitness landscapes (doi:10.1016/j.celrep.2020.107928)", "parents": {"B1": {"name": "Caulobacter ParB omega fusion; a variant is named by its letters at X, in order, B8GW30 (parent)", "chain": "MESVVVGEPGMSEGRRGLGRGLSALLGEVDAAPAQAPGEQLGGSREAPIEILQRNPDQPRRTFREEDLEDLSNSIREKGVLQPILVRPSPDTAGEYQIVAGERAWRAAQRAGLKTVPIMVRELDDLAVLEIGIIENVQRADLNVLEEALSYKVLMEKFERTQENIAQTIGKSXSHVANXMRLLXLPDEVQSYLVSGELTAXHARAIAAAADPVALAKQIIEGGLSVRETEALARKAPNLSAGKSKGGRPPRVKDTDTQALESDLSSVLGLDVSIDHRGSTGTLTITYATLEQLDDLCNRLTRGI"}}, "note": "The full ranking holds about 81,000 sequences; the median of “one-hybrid fitness for binding parS DNA” is about -0.17, and the highest 2% start at about 0.51. This is one part of the list."}
{"variants_of": "B1", "experiment": "one-hybrid fitness for binding parS DNA (scaled: cognate 1, non-cognate 0); higher = stronger binding", "settings": "with parS DNA site", "how_it_was_run": "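Fitness is the rescaled log change in variant-to-wild-type read ratio, measured by Illumina sequencing of plasmids before and after bacterial one-hybrid selection. The scale puts cognate at 1 and non-cognate at 0. Selection of Caulobacter ParB libraries, four specificity codons randomised, took place in E. coli USO with a HIS3 reporter, site 19 bp from the promoter, over 48 hours at 37°C on M9-minus-histidine with 0.1 mM IPTG and 5 mM 3-AT.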"}
{"variant": "NDTG", "one-hybrid fitness for binding parS DNA": "≤ 0.2"}
{"variant": "LPEG", "one-hybrid fitness for binding parS DNA": "≤ 0.2"}
{"variant": "QLHR", "one-hybrid fitness for binding parS DNA": "≤ 0.2"}
{"variant": "ATEP", "one-hybrid fitness for binding parS DNA": "≤ 0.2"}
{"variant": "TGTC", "one-hybrid fitness for binding parS DNA": "≤ 0.2"}
{"variant": "IQNA", "one-hybrid fitness for binding parS DNA": 0.208}
{"variant": "QLRC", "one-hybrid fitness for binding parS DNA": "≤ 0.2"}
{"variant": "THIT", "one-hybrid fitness for binding parS DNA": "≤ 0.2"}
{"variant": "RKHA", "one-hybrid fitness for binding parS DNA": 0.67}
{"variant": "SHDM", "one-hybrid fitness for binding parS DNA": "≤ 0.2"}
{"variant": "VMLC", "one-hybrid fitness for binding parS DNA": "≤ 0.2"}
{"variant": "QGNF", "one-hybrid fitness for binding parS DNA": "≤ 0.2"}
{"variant": "FRQG", "one-hybrid fitness for binding parS DNA": "≤ 0.2"}
{"variant": "QAFH", "one-hybrid fitness for binding parS DNA": "≤ 0.2"}
{"variant": "CRTF", "one-hybrid fitness for binding parS DNA": "≤ 0.2"}
{"variant": "AKIR", "one-hybrid fitness for binding parS DNA": "≤ 0.2"}
{"variant": "PDST", "one-hybrid fitness for binding parS DNA": "≤ 0.2"}
{"variant": "YCDR", "one-hybrid fitness for binding parS DNA": "≤ 0.2"}
{"variant": "WYLC", "one-hybrid fitness for binding parS DNA": "≤ 0.2"}
{"variant": "DTLT", "one-hybrid fitness for binding parS DNA": "≤ 0.2"}
{"variant": "YPTN", "one-hybrid fitness for binding parS DNA": "≤ 0.2"}
{"variant": "SINF", "one-hybrid fitness for binding parS DNA": "≤ 0.2"}
{"variant": "SVHI", "one-hybrid fitness for binding parS DNA": "≤ 0.2"}
{"variant": "QYIS", "one-hybrid fitness for binding parS DNA": "≤ 0.2"}
{"variant": "YISR", "one-hybrid fitness for binding parS DNA": "≤ 0.2"}
{"variant": "VKVF", "one-hybrid fitness for binding parS DNA": "≤ 0.2"}
{"variant": "SDHR", "one-hybrid fitness for binding parS DNA": "≤ 0.2"}
{"variant": "CYWS", "one-hybrid fitness for binding parS DNA": "≤ 0.2"}
{"variant": "PSVV", "one-hybrid fitness for binding parS DNA": "≤ 0.2"}
{"variant": "SAKE", "one-hybrid fitness for binding parS DNA": "≤ 0.2"}
{"variant": "PPAF", "one-hybrid fitness for binding parS DNA": "≤ 0.2"}
{"variant": "EADY", "one-hybrid fitness for binding parS DNA": "≤ 0.2"}
{"variant": "RPQL", "one-hybrid fitness for binding parS DNA": "≤ 0.2"}
{"variant": "VAQY", "one-hybrid fitness for binding parS DNA": "≤ 0.2"}
{"variant": "PDPC", "one-hybrid fitness for binding parS DNA": "≤ 0.2"}
{"variant": "QRQG", "one-hybrid fitness for binding parS DNA": "≤ 0.2"}
{"variant": "PRHP", "one-hybrid fitness for binding parS DNA": "≤ 0.2"}
{"variant": "QQWM", "one-hybrid fitness for binding parS DNA": "≤ 0.2"}
{"variant": "MVSL", "one-hybrid fitness for binding parS DNA": "≤ 0.2"}
{"variant": "NYRC", "one-hybrid fitness for binding parS DNA": "≤ 0.2"}
{"variant": "HAWM", "one-hybrid fitness for binding parS DNA": "≤ 0.2"}
{"variant": "AFVT", "one-hybrid fitness for binding parS DNA": "≤ 0.2"}
{"variant": "YKGG", "one-hybrid fitness for binding parS DNA": "≤ 0.2"}
{"variant": "IDPE", "one-hybrid fitness for binding parS DNA": "≤ 0.2"}
{"variant": "STPQ", "one-hybrid fitness for binding parS DNA": "≤ 0.2"}
{"variant": "ISPY", "one-hybrid fitness for binding parS DNA": "≤ 0.2"}
{"variant": "MAKT", "one-hybrid fitness for binding parS DNA": "≤ 0.2"}
{"variant": "SREN", "one-hybrid fitness for binding parS DNA": "≤ 0.2"}
{"variant": "LKRW", "one-hybrid fitness for binding parS DNA": "≤ 0.2"}
{"variant": "LAIE", "one-hybrid fitness for binding parS DNA": "≤ 0.2"}
{"variant": "KKRS", "one-hybrid fitness for binding parS DNA": "≤ 0.2"}
{"variant": "NLKK", "one-hybrid fitness for binding parS DNA": "≤ 0.2"}
{"variant": "VDSH", "one-hybrid fitness for binding parS DNA": "≤ 0.2"}
{"variant": "THMC", "one-hybrid fitness for binding parS DNA": "≤ 0.2"}
{"variant": "RNYC", "one-hybrid fitness for binding parS DNA": 0.719}
{"variant": "RATQ", "one-hybrid fitness for binding parS DNA": "≤ 0.2"}
{"variant": "QSTW", "one-hybrid fitness for binding parS DNA": "≤ 0.2"}
{"variant": "NCHT", "one-hybrid fitness for binding parS DNA": "≤ 0.2"}
{"variant": "SFNG", "one-hybrid fitness for binding parS DNA": "≤ 0.2"}
{"variant": "SHGL", "one-hybrid fitness for binding parS DNA": "≤ 0.2"}
{"variant": "TDSY", "one-hybrid fitness for binding parS DNA": "≤ 0.2"}
{"variant": "MCCL", "one-hybrid fitness for binding parS DNA": "≤ 0.2"}
{"variant": "SDGQ", "one-hybrid fitness for binding parS DNA": "≤ 0.2"}
{"variant": "HLGD", "one-hybrid fitness for binding parS DNA": "≤ 0.2"}
{"variant": "KLYM", "one-hybrid fitness for binding parS DNA": 0.203}
{"variant": "PDVV", "one-hybrid fitness for binding parS DNA": "≤ 0.2"}
{"variant": "RNYP", "one-hybrid fitness for binding parS DNA": "≤ 0.2"}
{"variant": "VHSM", "one-hybrid fitness for binding parS DNA": "≤ 0.2"}
{"variant": "ADDA", "one-hybrid fitness for binding parS DNA": "≤ 0.2"}
{"variant": "QVTQ", "one-hybrid fitness for binding parS DNA": "≤ 0.2"}
{"variant": "TAFN", "one-hybrid fitness for binding parS DNA": "≤ 0.2"}
{"variant": "NDWG", "one-hybrid fitness for binding parS DNA": "≤ 0.2"}
{"variant": "YMTV", "one-hybrid fitness for binding parS DNA": "≤ 0.2"}
{"variant": "YMCR", "one-hybrid fitness for binding parS DNA": "≤ 0.2"}
{"variant": "HGNV", "one-hybrid fitness for binding parS DNA": "≤ 0.2"}
{"variant": "NPRC", "one-hybrid fitness for binding parS DNA": "≤ 0.2"}
{"variant": "KHKY", "one-hybrid fitness for binding parS DNA": "≤ 0.2"}
{"variant": "CSSN", "one-hybrid fitness for binding parS DNA": "≤ 0.2"}
{"variant": "LKCS", "one-hybrid fitness for binding parS DNA": "≤ 0.2"}
{"variant": "QPLC", "one-hybrid fitness for binding parS DNA": "≤ 0.2"}
{"variant": "EFNT", "one-hybrid fitness for binding parS DNA": "≤ 0.2"}
{"variant": "MAAM", "one-hybrid fitness for binding parS DNA": "≤ 0.2"}
{"variant": "NSKV", "one-hybrid fitness for binding parS DNA": "≤ 0.2"}
{"variant": "PLNM", "one-hybrid fitness for binding parS DNA": "≤ 0.2"}
{"variant": "TESP", "one-hybrid fitness for binding parS DNA": "≤ 0.2"}
{"variant": "FYES", "one-hybrid fitness for binding parS DNA": "≤ 0.2"}
{"variant": "LVSY", "one-hybrid fitness for binding parS DNA": "≤ 0.2"}
{"variant": "TLYR", "one-hybrid fitness for binding parS DNA": "≤ 0.2"}
{"variant": "WVTA", "one-hybrid fitness for binding parS DNA": "≤ 0.2"}
{"variant": "DHGS", "one-hybrid fitness for binding parS DNA": "≤ 0.2"}
{"variant": "LWVP", "one-hybrid fitness for binding parS DNA": "≤ 0.2"}
{"variant": "NTHH", "one-hybrid fitness for binding parS DNA": "≤ 0.2"}
{"variant": "QCAV", "one-hybrid fitness for binding parS DNA": "≤ 0.2"}
{"variant": "SPKK", "one-hybrid fitness for binding parS DNA": "≤ 0.2"}
{"variant": "IDGS", "one-hybrid fitness for binding parS DNA": "≤ 0.2"}
{"variant": "QRQS", "one-hybrid fitness for binding parS DNA": "≤ 0.2"}
{"variant": "QTAN", "one-hybrid fitness for binding parS DNA": "≤ 0.2"}
{"variant": "MNYA", "one-hybrid fitness for binding parS DNA": "≤ 0.2"}
